Laboratory results reported in US11872312B2, “Neuroprotective liposome compositions and methods for treatment of stroke” (The Board of Regents of The University of Texas System, priority 2012, dated 2024).

Columns and labels:
[1] = tested on: thrombotic stroke (blood clot in middle cerebral artery)
[2] = tested on: thrombotic stroke (blood clot in middle cerebral artery); conditions: rat, in vivo

## tissue plasminogen activator [tPA]
[1]; 3 days after occlusion
  reduction in infarct volume: 69%
[1]; rat, in vivo, iv
  Reperfusion rate after IV tPA: 21 ± 17%
[1]; tPA 10 mg/kg IV at 2 hours after occlusion, Xe-ELIP IV before tPA with ultrasound
  infarct size (% of the whole brain): 5.2±0.4%
[2]
  Death rate: 31%
